Data published in US11427549B2, “Pyrimidinyloxy benzo-fused compounds as herbicides” (FMC Corporation, priority 2017, dated 2022).

The compounds below were run on sedge, umbrella (small-flower umbrella sedge, Cyperus difformis) (assay: Test B flooded paddy test, sedge, umbrella). Conditions: Cyperus difformis, read-out: Plant response rating, Sedge, Umbrella (0 to 100 scale, 0 is no effect, 100 is complete control).

In order of falling pest or weed control at 250 g/ha:
1. FC(F)(F)CCCC1CCc2cccc(Oc3ncc(Cl)cn3)c21 (stereo not shown) [Compound 9, 5-Chloro-2-[[2,3-dihydro-3-(4,4,4-trifluorobutyl)-1H-inden-4-yl]oxy]pyrimidine]  100%
2. O=C1OC(CCC(F)(F)F)c2c(Oc3ncc(Cl)cn3)cccc21 (stereo not shown) [Compound 4, 4-[(5-Chloro-2-pyrimidinyl)oxy]-3-(3,3,3-trifluoropropyl)-1(3H)-isobenzofuranone]  100%
3. O=C1O[C@H](CCC(F)(F)F)c2c(Oc3ncc(Cl)cn3)cccc21 [Compound 19, (3R)-4-[(5-Chloro-2-pyrimidinyl)oxy]-3-(3,3,3-trifluoropropyl)-1(3H)-isobenzofuranone]  100%
4. FC(F)(F)CCCC1OCc2cccc(Oc3ncc(Cl)cn3)c21 (stereo not shown) [Compound 7, 5-chloro-2-[[1,3-dihydro-3-(4,4,4-trifluorobutyl)-4-isobenzofuranyl]oxy]-pyrimidine]  100%
5. O=C1O[C@H](CCCC(F)(F)F)c2c(Oc3ncc(Cl)cn3)cccc21 [Compound 3, (3R)-4-[(5-Chloro-2-pyrimidinyl)oxy]-3-(4,4,4-trifluorobutyl)-1-(3H)-isobenzofuranone]  100%
6. FC(F)(F)CCC1OCc2cccc(Oc3ncc(Cl)cn3)c21 (stereo not shown) [Compound 8, 5-Chloro-2-[[1,3-dihydro-3-(3,3,3-trifluoropropyl)-4-isobenzofuranyl]oxy]pyrimidine]  100%
7. FC(F)(F)CC[C@H]1OCc2cccc(Oc3ncc(Cl)cn3)c21 [Compound 20, 5-Chloro-2-[[(3R)-1,3-dihydro-3-(3,3,3-trifluoropropyl)-4-isobenzofuranyl]oxy]-pyrimidine]  100%
8. FC(F)(F)CCC1OCCc2cccc(Oc3ncc(Cl)cn3)c21 (stereo not shown) [Compound 32, 5-Chloro-2-[[3,4-dihydro-1-(3,3,3-trifluoropropyl)-1H-2-benzopyran-8-yl]oxy]pyrimidine]  98%
9. OC1CC(CCCC(F)(F)F)c2c(Oc3ncc(Cl)cn3)cccc21 (stereo not shown) [Compound 10, 4-[(5-Chloro-2-pyrimidinyl)oxy]-2,3-dihydro-3-(4,4,4-trifluorobutyl)-1H-inden-1-ol]  95%
10. O=C1CCC(CCCC(F)(F)F)c2c(Oc3ncc(Cl)cn3)cccc21 (stereo not shown) [Compound 30, 5-[(5-Chloro-2-pyrimidinyl)oxy]-3,4-dihydro-4-(4,4,4-trifluorobutyl)-1(2H)-naphthalenone]  95%
11. FC(F)(F)CCCC1OCCc2cccc(Oc3ncc(Cl)cn3)c21 (stereo not shown) [Compound 27, 5-Chloro-2-[[3,4-dihydro-1-(4,4,4-trifluorobutyl)-1H-2-benzopyran-8-yl]oxy]pyrimidine]  95%
12. O=C1c2cccc(Oc3ncc(Cl)cn3)c2C1CCCC(F)(F)F (stereo not shown) [Compound 22, 2-[(5-Chloro-2-pyrimidinyl)oxy]-8-(4,4,4-trifluorobutyl)bicyclo[4.2.0]octa-1,3,5-trien-7-one]  90%
13. O=C1c2cccc(Oc3ncc(Cl)cn3)c2C1CCC(F)(F)F (stereo not shown) [Compound 24, 2-[(5-Chloro-2-pyrimidinyl)oxy]-8-(3,3,3-trifluoropropyl)bicyclo[4.2.0]octa-1,3,5-trien-7-one]  80%
14. FC(F)(F)CCCC1COc2cccc(Oc3ncc(Cl)cn3)c21 (stereo not shown) [Compound 33, 5-Chloro-2-[[2,3-dihydro-3-(4,4,4-trifluorobutyl)-4-benzofuranyl]oxy]pyrimidine]  75%
15. O=C1COC(CCCC(F)(F)F)c2c(Oc3ncc(Cl)cn3)cccc21 (stereo not shown) [Compound 5, 8-[(5-Chloro-2-pyrimidinyl)oxy]-1-(4,4,4-trifluorobutyl)-1H-2-benzopyran-4(3H)-one]  70%
16. O=C1OC(CCCC(F)(F)F)c2c(Oc3ncc(Cl)cn3)cccc21 (stereo not shown) [Compound 1, 4-[(5-Chloro-2-pyrimidinyl)oxy]-3-(4,4,4-trifluorobutyl)-1(3H)-isobenzofuranone]  70%
17. OC1(CCC(F)(F)F)CCc2cccc(Oc3ncc(Cl)cn3)c21 (stereo not shown) [Compound 14, 7-[(5-Chloro-2-pyrimidinyl)oxy]-2,3-dihydro-1-(3,3,3-trifluoropropyl)-1H-inden-1-ol]  50%
18. FC(F)(F)CCC1COc2cccc(Oc3ncc(Cl)cn3)c21 (stereo not shown) [Compound 36, 5-Chloro-2-[[2,3-dihydro-3-(3,3,3-trifluoropropyl)-4-benzofuranyl]oxy]pyrimidine]  20%
19. O=C1OCC(CCC(F)(F)F)c2c(Oc3ncc(Cl)cn3)cccc21 (stereo not shown) [Compound 25, 5-[(5-Chloro-2-pyrimidinyl)oxy]-3,4-dihydro-4-(3,3,3-trifluoropropyl)-1H-2-benzopyran-1-one]  0%
20. O=C1O[C@@H](CCCC(F)(F)F)c2c(Oc3ncc(Cl)cn3)cccc21 [Compound 2, (3S)-4-[(5-Chloro-2-pyrimidinyl)oxy]-3-(4,4,4-trifluorobutyl)-1-(3H)-isobenzofuranone]  0%
21. O=C1NC(CCCC(F)(F)F)c2c(Oc3ncc(Cl)cn3)cccc21 (stereo not shown) [Compound 13, 4-[(5-Chloro-2-pyrimidinyl)oxy]-2,3-dihydro-3-(4,4,4-trifluorobutyl)-1H-isoindol-1-one]  0%
22. O=C1O[C@@H](CCC(F)(F)F)c2c(Oc3ncc(Cl)cn3)cccc21 [Compound 18, (3S)-4-[(5-Chloro-2-pyrimidinyl)oxy]-3-(3,3,3-trifluoropropyl)-1(3H)-isobenzofuranone]  0%
23. O=C1Cc2cccc(Oc3ncc(Cl)cn3)c2C(CCCC(F)(F)F)O1 (stereo not shown) [Compound 17, 8-[(5-Chloro-2-pyrimidinyl)oxy]-1,4-dihydro-1-(4,4,4-trifluorobutyl)-3H-2-benzopyran-3-one]  0%
24. O=C1OCc2cccc(Oc3ncc(Cl)cn3)c2C1CCC(F)(F)F (stereo not shown) [Compound 29, 5-[(5-Chloro-2-pyrimidinyl)oxy]-1,4-dihydro-4-(3,3,3-trifluoropropyl)-3H-2-benzopyran-3-one]  0%
25. FC(F)(F)CC[C@@H]1OCc2cccc(Oc3ncc(Cl)cn3)c21 [Compound 21, 5-Chloro-2-[[(3S)-1,3-dihydro-3-(3,3,3-trifluoropropyl)-4-isobenzofuranyl]oxy]-pyrimidine]  0%
26. O=C1OCc2cccc(Oc3ncc(Cl)cn3)c2C1CCCCC(F)(F)F (stereo not shown) [Compound 34, 5-[(5-Chloro-2-pyrimidinyl)oxy]-1,4-dihydro-4-(5,5,5-trifluoropentyl)-3H-2-benzopyran-3-one]  0%
27. O=C1OC(CCCCC(F)(F)F)Cc2c(Oc3ncc(Cl)cn3)cccc21 (stereo not shown) [Compound 31, 5-[(5-Chloro-2-pyrimidinyl)oxy]-3,4-dihydro-3-(5,5,5-trifluoropentyl)-1H-2-benzopyran-1-one]  0%
28. O=C1OC(CCC(F)(F)F)Cc2c(Oc3ncc(Cl)cn3)cccc21 (stereo not shown) [Compound 23, 5-[(5-Chloro-2-pyrimidinyl)oxy]-3,4-dihydro-3-(3,3,3-trifluoropropyl)-1H-2-benzopyran-1-one]  0%
29. CCCC1OC(=O)Cc2cccc(Oc3ncc(Cl)cn3)c21 (stereo not shown) [Compound 35, 8-[(5-Chloro-2-pyrimidinyl)oxy]-1,4-dihydro-1-propyl-3H-2-benzopyran-3-one]  0%
30. CN1C(=O)c2cccc(Oc3ncc(Cl)cn3)c2C1CCCC(F)(F)F (stereo not shown) [Compound 12, 4-[(5-Chloro-2-pyrimidinyl)oxy]-2,3-dihydro-2-methyl-3-(4,4,4-trifluorobutyl)-1H-isoindol-1-one]  0%
31. O=C1Cc2cccc(Oc3ncc(Cl)cn3)c2C(CCC(F)(F)F)O1 (stereo not shown) [Compound 28, 8-[(5-Chloro-2-pyrimidinyl)oxy]-1,4-dihydro-1-(3,3,3-trifluoropropyl)-3H-2-benzopyran-3-one]  0%

Same assay, conditions: Flood, 250 g ai/ha, applied to paddy water, 2-leaf stage, visually evaluated after 13 to 15 days

In order of falling “Plant response rating, Sedge, Umbrella (0 to 100 scale, 0 is no effect, 100 is complete control)” value:
1. O=C1CC(CCCC(F)(F)F)c2c(Oc3ncc(Cl)cn3)cccc21 (stereo not shown) [Compound 6, 4-[(5-Chloropyrimidin-2-pyrimidinyl)oxy]-2,3-dihydro-3-(4,4,4-trifluorobutyl)-1H-inden-1-one]  100
2. O=C1OCC(CCCC(F)(F)F)c2c(Oc3ncc(Cl)cn3)cccc21 (stereo not shown) [Compound 16, 5-[(5-Chloro-2-pyrimidinyl)oxy]-3,4-dihydro-4-(4,4,4,-trifluorobutyl)-1H-2benzopyran-1-one]  90
3. 5-Chloro-2-[[1-oxido-3-(4,4,4-trifluorobutyl)-3H-2,1-benzoxathiol-4-yl]oxy]pyrimidine [Compound 15]  0
